First the molecules themselves.
T1: HIS-tagged human IL-2R α-subunit (human, UniProt P01589 22-213, limits assumed)
T1 construct: Analyte in solution in BLI; also called CD25; not shown: HIS tag
T1 sequence (looked up): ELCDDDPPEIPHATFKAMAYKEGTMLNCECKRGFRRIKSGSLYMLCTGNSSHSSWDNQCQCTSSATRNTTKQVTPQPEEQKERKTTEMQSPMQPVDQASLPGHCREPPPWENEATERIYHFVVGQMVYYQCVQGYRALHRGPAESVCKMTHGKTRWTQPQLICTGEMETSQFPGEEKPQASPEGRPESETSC

T2: HIS-tagged human IL-2Rβγ heterodimer (human, UniProt P14784 27-239; P31785 23-262, limits assumed)
T2 construct: Analyte in solution in BLI; HIS-tagged; also called CD122/CD132
T2 sequence (looked up) 1: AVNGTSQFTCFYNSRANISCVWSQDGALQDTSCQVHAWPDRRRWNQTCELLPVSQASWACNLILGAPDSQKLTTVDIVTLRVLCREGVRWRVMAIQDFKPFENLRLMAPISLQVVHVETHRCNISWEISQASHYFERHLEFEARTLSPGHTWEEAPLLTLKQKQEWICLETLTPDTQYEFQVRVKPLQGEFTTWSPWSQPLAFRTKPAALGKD
T2 sequence (looked up) 2: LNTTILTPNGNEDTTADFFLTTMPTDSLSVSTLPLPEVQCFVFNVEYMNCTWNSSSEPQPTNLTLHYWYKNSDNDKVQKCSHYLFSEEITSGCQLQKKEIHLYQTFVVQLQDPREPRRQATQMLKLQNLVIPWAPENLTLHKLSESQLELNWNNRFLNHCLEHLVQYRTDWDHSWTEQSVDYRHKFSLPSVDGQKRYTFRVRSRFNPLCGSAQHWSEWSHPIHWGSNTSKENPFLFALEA

B1: human wildtype IL2 fused to human IgG1-LALA Fc (Fc fusion)
chain: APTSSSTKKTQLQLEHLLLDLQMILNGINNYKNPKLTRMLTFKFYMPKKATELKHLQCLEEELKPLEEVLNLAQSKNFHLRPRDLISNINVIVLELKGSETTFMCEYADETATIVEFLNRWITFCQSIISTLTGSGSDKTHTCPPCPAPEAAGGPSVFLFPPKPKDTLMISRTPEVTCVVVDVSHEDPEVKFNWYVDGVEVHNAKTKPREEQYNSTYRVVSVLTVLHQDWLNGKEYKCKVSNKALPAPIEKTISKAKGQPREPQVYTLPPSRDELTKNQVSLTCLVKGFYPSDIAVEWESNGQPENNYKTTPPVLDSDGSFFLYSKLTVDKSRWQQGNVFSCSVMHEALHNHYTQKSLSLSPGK
notes: IL2 is at the N terminus of the Fc; also called IL2-WT
B2: IL[…]V fused to human IgG1-LALA Fc (Fc fusion)
chain: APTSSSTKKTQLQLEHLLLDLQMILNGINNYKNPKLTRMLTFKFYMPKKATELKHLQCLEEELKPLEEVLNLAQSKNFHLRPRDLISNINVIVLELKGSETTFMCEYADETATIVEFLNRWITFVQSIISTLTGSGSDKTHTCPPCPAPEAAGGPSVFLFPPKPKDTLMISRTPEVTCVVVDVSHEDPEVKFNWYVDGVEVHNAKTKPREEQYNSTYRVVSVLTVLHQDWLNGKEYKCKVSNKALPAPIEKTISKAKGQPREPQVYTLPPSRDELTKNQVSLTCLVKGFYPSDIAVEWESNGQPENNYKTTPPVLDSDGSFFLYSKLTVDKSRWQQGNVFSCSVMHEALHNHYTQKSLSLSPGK
notes: Signal peptide (residues 1-20 of the entry) left out
B3: ESE01.033 fused to human IgG1-LALA Fc (Fc fusion)
chain: APTSSSTKKTQLQLEHLLLDLQMILNGINNYKNPKLTEMLTQQFYMPKEATELKHLQCLEEELKPLEEVLNLAQSKNFHLRPRDLISDINAIVLELKGSETTFMCEYADETATIVEFLNRWITFVQSIISTLTGSGS[human IgG1 Fc with changes left out here]
notes: ESE01.019 plus N88D, V91A
B4: ESE01.034 fused to human IgG1-LALA Fc (Fc fusion)
chain: APTSSSTKKTQLQLEHLLLDLQMILNGINNYKNPKLTEMLTQQFYMPKEATELKHLQCLEEELKPLEEVLNLAQSKNFHLRPRDLISDINEIVLELKGSETTFMCEYADETATIVEFLNRWITFVQSIISTLTGSGS[human IgG1 Fc with changes left out here]
notes: ESE01.019 plus N88D, V91E
B5: ESE01.037 fused to human IgG1-LALA Fc (Fc fusion)
chain: APTSSSTKKTQLQLEHLLLDLQMILNGINNYKNPKLTEMLTQQFYMPKEATELKHLQCLEEELKPLEEVLNLAQSKNFHLRPRDLISNINETVLELKGSETTFMCEYADETATIVEFLNRWITFVQSIISTLTGSGS[human IgG1 Fc with changes left out here]
notes: ESE01.019 plus V91E, I92T
B6: ESE01.028 fused to human IgG1-LALA Fc (Fc fusion)
chain: APTSSSTKKTQLQLEHLLLDLQMILNGINNYKNPKLTEMLTQQFYMPKEATELKHLQCLEEELKPLEEVLNLAQSKNFHLRPRDLISNINDIVLELKGSETTFMCEYADETATIVEFLNRWITFVQSIISTLTGSGS[human IgG1 Fc with changes left out here]
notes: ESE01.019 plus V91D
B7: ESE01.036 fused to human IgG1-LALA Fc (Fc fusion)
chain: APTSSSTKKTQLQLEHLLLDLQMILNGINNYKNPKLTEMLTQQFYMPKEATELKHLQCLEEELKPLEEVLNLAQSKNFHLRPRDLISNINATVLELKGSETTFMCEYADETATIVEFLNRWITFVQSIISTLTGSGS[human IgG1 Fc with changes left out here]
notes: ESE01.019 plus V91A, I92T
B8: ESE01.035 fused to human IgG1-LALA Fc (Fc fusion)
chain: APTSSSTKKTQLQLEHLLLDLQMILNGINNYKNPKLTEMLTQQFYMPKEATELKHLQCLEEELKPLEEVLNLAQSKNFHLRPRDLISNINDTVLELKGSETTFMCEYADETATIVEFLNRWITFVQSIISTLTGSGS[human IgG1 Fc with changes left out here]
notes: ESE01.019 plus V91D, I92T
B9: ESE01.042 fused to human IgG1-LALA Fc (Fc fusion)
chain: APTSSSTKKTQLQLEHLLLDLQMILNGINNYKNPKLTEMLTQQFYMPKKATELKHLQCLEEELKPLEEVLNLAQSKNFHLRPRDLISNINVIVLELKGSETTFMCEYADETATIVEFLNRWITFVQSIISTLTGSGS[human IgG1 Fc with changes left out here]
B10: ESE01.017 fused to human IgG1-LALA Fc (Fc fusion)
chain: APTSSSTKKTQLQLEHLLLDLQMILNGINNYKNPKLTRMLTHQFYMPKKATELKHLQCLEEELKPLEEVLNLAQSKNFHLRPRDLISNINVIVLELKGSETTFMCEYADETATIVEFLNRWITFVQSIISTLTGSGS[human IgG1 Fc with changes left out here]
notes: Printed positions count on the mature protein: entry position = printed + 20
B11: ESE01.008 fused to human IgG1-LALA Fc (Fc fusion)
chain: APTSSSTKKTQLQLEHLLLDLQMILNGINNYKNPKLTEMLTFKFYMPKKATELKHLQCLEETLKPLESVLNKAQSKNFHLRPRDLISNINVIVLELKGSETTFMCEYADETATIVEFLNRWITFVQSIISTLTGSGS[human IgG1 Fc with changes left out here]
notes: as for B10
B12: ESE01.030 fused to human IgG1-LALA Fc (Fc fusion)
chain: APTSSSTKKTQLQLEHLLLDLQMILNGINNYKNPKLTEMLTQQFYMPKEATELKHLQCLEEELKPLEEVLNLAQSKNFHLRPRDLISNINEIVLELKGSETTFMCEYADETATIVEFLNRWITFVQSIISTLTGSGS[human IgG1 Fc with changes left out here]
notes: ESE01.019 plus V91E
B13: ESE01.016 fused to human IgG1-LALA Fc (Fc fusion)
chain: APTSSSTRKTQLQLEHLLLDLQMILNGINNYKNPKLTTMLTEPFYMPKKATELKHLQCLEEGLKPLEAVLNLAQSKNFHLRPRDLISNINVIVLELKGSETTFMCEYADETATIVEFLNRWITFVQSIISTLTGSGS[human IgG1 Fc with changes left out here]
notes: as for B10
B14: ESE01.029 fused to human IgG1-LALA Fc (Fc fusion)
chain: APTSSSTKKTQLQLEHLLLDLQMILNGINNYKNPKLTEMLTQQFYMPKEATELKHLQCLEEELKPLEEVLNLAQSKNFHLRPRDLISNINAIVLELKGSETTFMCEYADETATIVEFLNRWITFVQSIISTLTGSGS[human IgG1 Fc with changes left out here]
notes: ESE01.019 plus V91A
B15: ESE01.019 fused to human IgG1-LALA Fc (Fc fusion)
chain: APTSSSTKKTQLQLEHLLLDLQMILNGINNYKNPKLTEMLTQQFYMPKEATELKHLQCLEEELKPLEEVLNLAQSKNFHLRPRDLISNINVIVLELKGSETTFMCEYADETATIVEFLNRWITFVQSIISTLTGSGS[human IgG1 Fc with changes left out here]
notes: R38E, F42Q, K43Q, K49E, C125V
B16: ESE01.020 fused to human IgG1-LALA Fc (Fc fusion)
chain: APTSSSTKKTQLQLEHLLLDLQMILNGTNNYKNPKLTEMLTFRFYMPKKATELKHLQCLEEELKPLEEVLNLAQSKNFHLRPRDLISNINVIVLELKGSETTFMCEYADETATIVEFLNRWITFVQSIISTLTGSGS[human IgG1 Fc with changes left out here]
notes: I28T, R38E, K43R, C125V
B17: ESE01.018 fused to human IgG1-LALA Fc (Fc fusion)
chain: APTSSSTKKTQLQLEHLLLDLQMILNGINNYKNPKLTDMLTQGFYMPKKATELKHLQCLEEELMPLEEVLNLAQSKNFHLRPRDLISNINVIVLELKGSETTFMCEYADETATIVEFLNRWITFVQSIISTLTGSGS[human IgG1 Fc with changes left out here]
notes: as for B10
B18: IL2-3X (ESE01.004) fused to human IgG1-LALA Fc (Fc fusion)
chain: APTSSSTKKTQLQLEHLLLDLQMILNGINNYKNPKLTDMLTFEFYMPKKATELKHLQCLERELKPLEEVLNLAQSKNFHLRPRDLISNINVIVLELKGSETTFMCEYADETATIVEFLNRWITFVQSIISTLTGSGS[human IgG1 Fc with changes left out here]
notes: R38D, K43E, E61R and C125V
B19: ESE01.006 fused to human IgG1-LALA Fc (Fc fusion)
chain: APTSSSTKKTQLQLEHLLLDLQMILNGINNYKNPKLTQMLTRSFYMPKKATELKHLQCLEEELKPLEVVLNLAQSKNFHLRPRDLISNINVIVLELKGSETTFMCEYADETATIVEFLNRWITFVQSIISTLTGSGS[human IgG1 Fc with changes left out here]
B20: ESE01.031 fused to human IgG1-LALA Fc (Fc fusion)
chain: APTSSSTKKTQLQLEHLLLDLQMILNGINNYKNPKLTEMLTQQFYMPKEATELKHLQCLEEELKPLEEVLNLAQSKNFHLRPRDLISNINVTVLELKGSETTFMCEYADETATIVEFLNRWITFVQSIISTLTGSGS[human IgG1 Fc with changes left out here]
notes: ESE01.019 plus I92T
B21: ESE01.010 fused to human IgG1-LALA Fc (Fc fusion)
chain: APTSSSTKKTQLQLEHLLLDLQMILNGINNYKNPKLTAMLTEGFYMPKKATELKHLQCLEEELKPLEEVLNLAQSKNFHLRPRDLISNINVIVLELKGSETTFMCEYADETATIVEFLNRWITFVQSIISTLTGSGS[human IgG1 Fc with changes left out here]
notes: as for B10

Some results are limits rather than exact numbers.

One experiment has as its target T1, HIS-tagged human IL-2R α-subunit. Put plainly: BLI (Octet Red 96), variant-Fc on AHC sensor, HIS-tagged IL-2Rα as analyte, 1:1 fit. The protocol:
(§1) The affinity of the IL2 variants to the IL-2Rβγheterodimer and the IL-2Rα-subunit was determined by Bio-Layer Interferometry (BLI) technology (Octet Red 96 system). Briefly, the IL2 variants with a concentration of 50 nM were loaded and immobilized on an AHC (Anti-hIgG Fc Capture) sensor until the signal reached 0.6 nm. The sensors were immersed in buffer until the signal returned to baseline. Subsequently, either the HIS-tagged human IL-2R a-subunit or the HIS-tagged human IL-2Rβγheterodimer was applied to the sensors as analytes at 30° C. in kinetics buffer (PALL, USA) in concentrations ranging from 100 nM down to 3.125 nM (1:2 dilution). The following conditions were applied: 90 s for association 300 s for dissociation and 6×5 s for regeneration with regeneration solution (10 mM Glycine, pH 1.5). The curves obtained were fitted with a 1:1 binding model.
A general note: BLI is a label-free optical method that tracks binding on a fibre tip over time.
For orientation: Kd means the concentration at which binding is half-saturated. B1 returned a Kd of 33.6 nM. Turning to B2, the Kd came to 36.5 nM.

The next experiment addresses T2, HIS-tagged human IL-2Rβγ heterodimer. Put plainly: BLI (Octet Red 96), variant-Fc on AHC sensor, HIS-tagged IL-2Rβγ heterodimer as analyte (up to 1000 nM), 1:1 fit. As for the experimental part:
as §1
In turn, B3 returned a Kd of 20.6 nM. The same measure, in the same setting: the figure for B4 is 35.6 nM; for B5 it is 17.3 nM.

B6: the affinity, expressed as Kd, was 21.1 nM. In the case of B7, the Kd amounted to 6.5 nM. Same read-out and setting: with B8 the figure was 39 nM.

The next experiment shares this target. Put plainly: BLI (Octet Red 96), variant-Fc on AHC sensor, HIS-tagged IL-2Rβγ heterodimer as analyte, 1:1 fit. As for the experimental part: as §1
B9: the Kd was less than 0.001 nM. On the same count and under the same terms, with B10 the figure was 0.0156 nM; with B11, 0.0283 nM; with B12, 1.51 nM. B13 returned a Kd of less than 0.001 nM. On to B2, for which the Kd was less than 0.001 nM.

As to B14, the Kd stood at 1.03 nM. In other words, the single-digit nanomolar range.

In the case of B15, the Kd is less than 0.001 nM.

Regarding B16, the Kd is less than 0.001 nM. Still for that read-out and setting: the figure for B17 is less than 0.001 nM. As to B18, the Kd is 0.0317 nM. The same measure, in the same setting: with B19 the figure was 0.44 nM. Take B20: the Kd turned out to be 1.26 nM. B21 had a dissociation constant (Kd) of less than 0.001 nM.

The target is the same in another experiment. The description is as above. This is another data set of the same source. The protocol:
as §1
B1 returned a Kd of less than 0.001 nM. Same read-out and setting: with B2 the figure was less than 0.001 nM.

Another experiment has as its target T1, HIS-tagged human IL-2R α-subunit. Put plainly: BLI (Octet): variant-Fc captured on AHC sensor, HIS-tagged human IL2Rα (IL2R_a) as analyte. The protocol: as §1
Regarding B11, the binding result was “no binding”.

As to B18, the binding result is recorded as “no binding”.

In the case of B19, the binding result is recorded as “no binding”. For B21, the binding result was “no binding”.

These data come from patent US20260258107A1 (ELPISCIENCE SUZHOU BIOPHARMA, published 2026).
